Experimental data as given in PubChem BioAssay AID686979 (National Center for Advancing Translational Sciences (NCATS), 2013).
“And” between values parts separate entries of the source, which are not always exact repeats. Equal entries are not always repeated. Out of some 420,000 compounds screened, about 50,000 (12%) were called active. The inconclusive results got no clear call from the source; some entries with a clear call stand among them for comparison. Calls come from the whole dose curve; as a rule, active = well fitted inhibition curve with a large enough effect; inconclusive = small, poorly fitted or top-dose-only effect; inactive = flat fitted curve, though single readings scatter. Potencies of inconclusive entries are left out as doubtful fits.
% is set by controls: 0 for no effect and ±100 for the full control effect; potency is the fitted concentration of half-maximal effect; tags give direction and shape of the fitted curve.

Assay: qHTS for Inhibitors of human tyrosyl-DNA phosphodiesterase 1 (TDP1): qHTS in cells in presence of CPT; note: nearly all actives have a fitted effect of over 55% in size
Details: chicken DT40 Tdp1-/-;hTDP1 cells + 20 nM CPT, ATP luminescence, 48 h; activity change, negative = growth inhibition: at 46.2 µM (top of the series)
Summary of the method: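 Chicken DT40 Tdp1-/- cells stably complemented with human TDP1 were seeded at 400 cells/well in medium containing 20 nM camptothecin, exposed to pin-transferred compounds, and grown at 37 °C for at least 48 hr. Viability was read as ATP luminescence.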
For `CCOc1ccc(-c2cn3c(n2)sc2cc(C(=O)NCCc4ccc(OC)c(OC)c4)ccc23)cc1`, the Potency was active: 11.6 µM. In the case of `COc1ccccc1NC(=S)NCc1ccc(S(N)(=O)=O)cc1`, the Potency is reported as “inactive”. With `Cc1ccc(C2(CCNCc3ccco3)CCOC(C(C)C)C2)cc1` (stereo unspecified) the Potency was inconclusive [inhibitor, single point]. With `CCC(=O)N1CCc2cc(S(=O)(=O)CCC(=O)N3CCN(c4ccc(C(C)=O)cc4)CC3)ccc21` the Potency was active: 11.6 µM and active: 18.4 µM. In the case of `COc1ccc(OC)c(-c2nn(-c3ccccc3)cc2C(=O)N2CCc3ccccc3C2)c1`, the Potency is reported as inconclusive [inhibitor, single point]. In the case of `CC(C)(CN1CCCC1)NS(=O)(=O)c1ccc(Cl)cc1`, the Potency is reported as “inactive”. In the case of `CCOc1cc(N2CCOCC2)c(OCC)cc1NC(C)C(=O)N1CCC(C)CC1` (stereo unspecified), the Potency is reported as inconclusive [inhibitor, single point]. With `O=C(Cc1ccc(NC(=O)C2CCN(C(=O)C3CCCC3)CC2)cc1)Nc1cccc(C(=O)N2CCCCC2)c1` the Potency was “inactive”. In the case of `COc1cc(C(=O)NCC(=O)N/N=C/c2c(C)[nH]c3ccccc23)cc(OC)c1OC`, the Potency is reported as inconclusive [inhibitor, single point]. With `CC(C)C[C@@H](CNC(=O)OC(C)(C)C)NC(=O)c1nc[nH]c1C(=O)N[C@@H](CC(C)C)C(=O)CNC[C@H](CC(C)C)NC(=O)c1nc[nH]c1C(=O)N[C@@H](Cc1c[nH]c2ccccc12)C(=O)OC(C)(C)C` the Potency was inconclusive [inhibitor, single point]. In the case of `COCCNCCCOc1ccc(C(C)(C)c2ccccc2)cc1`, the Potency is reported as inconclusive [inhibitor, single point]. With `COc1cccc(NC(=O)c2nn(C34CC5CC(CC(C5)C3)C4)cc2[N+](=O)[O-])c1` the Potency was inconclusive [inhibitor, single point]. With `COc1ccccc1Nc1nc(NCc2ccco2)c2ccccc2n1` the Potency was inconclusive [inhibitor, single point]. In the case of `O=C(OCn1ncc(Cl)c(Cl)c1=O)c1ccccc1Cl`, the Potency is reported as active: 2.31 µM. For `COc1ccc(CCNC(=O)CCn2c(=O)c3cccn3c3cccnc32)c(OC)c1OC`, the Potency was inconclusive [inhibitor, single point]. For `Cc1ccc(CNC(=O)c2ccc(N3CCC4(CC3)CC(c3ccccc3)=NO4)c(NC(=O)c3cccc(C)c3)c2)cc1`, the Potency was “inactive”. For `CCc1cc(=O)oc2cc(C)cc(OC(C)C(=O)NCCCN3CCOCC3)c12` (stereo unspecified), the Potency was “inactive”. In the case of `CCC(C)(C)NC(=O)Cn1c(=O)ccc2cc(S(=O)(=O)N3CCC(C)CC3)ccc21`, the Potency is reported as inconclusive [inhibitor, single point]. For `CCOC(=O)N1CCC(NC(=O)c2ccc3c(c2)N(Cc2cc(C)ccc2C)C(=O)c2ccccc2S3=O)CC1` (stereo unspecified), the Potency was active: 6.51 µM. With `COc1cc(-c2cc(NC=O)c3ncc(-c4ccc(F)cc4)n3c2)cc(OC)c1OC` the Potency was inconclusive [inhibitor, single point]. In the case of `CCOC(=O)c1c(NC(=O)/C=C\C(=O)O)sc(C)c1-c1ccccc1`, the Potency is reported as inconclusive [inhibitor, single point]. In the case of `O=C(Cn1cnc2c(nnn2Cc2ccc(Cl)cc2)c1=O)N1CCCc2ccccc21`, the Potency is reported as inconclusive [inhibitor, partial curve]. With `COc1ccc(C2/C(=C(/O)c3ccc(F)cc3)C(=O)C(=O)N2c2ccccn2)cc1OC` (stereo unspecified) the Potency was inconclusive [inhibitor, single point]. With `Cn1ncc(Cl)c1C(=O)N1CCN(C23CC4CC(CC(C4)C2)C3)CC1` the Potency was inconclusive [inhibitor, partial curve, poor fit]. In the case of `O=C(CSc1nccn1Cc1ccccc1)Nc1ccc2c(c1)OCO2`, the Potency is reported as inconclusive [inhibitor, partial curve, poor fit]. With `COc1ccc(Cc2c(-c3ccc(F)cc3)nc3c(C)cc(Br)cn23)c(C)c1` the Potency was inconclusive [inhibitor, single point]. With `Cc1cc(Cl)ccc1C(=O)C1CCCN(C(=O)c2cnn(C(C)C)c2)C1` (stereo unspecified) the Potency was inconclusive [inhibitor, single point]. For `CCOc1cc(C(=O)NCCc2csc(-c3ccc(C)cc3)n2)cc(OCC)c1OCC`, the Potency was inconclusive [inhibitor, single point]. In the case of `C(=Nc1ccc(/C=C/c2ccnc3ccccc23)cc1)c1ccco1`, the Potency is reported as active: 15.8 µM. With `Cc1cccc(C(=O)NNC(=O)C2CCCCC2)c1O` the Potency was inconclusive [inhibitor, single point]. In the case of `Cc1noc(C)c1CSCC(=O)N(C)CC(=O)Nc1ccc(Cl)c(Cl)c1`, the Potency is reported as inconclusive [inhibitor, partial curve]. In the case of `Oc1ccccc1C1=NN(c2ccccc2)C(c2ccccc2)C1` (stereo unspecified), the Potency is reported as inconclusive [inhibitor, single point]. With `CC(C)(C)n1nc2c(c1NC(=O)c1cc(Cl)ccc1[N+](=O)[O-])CS(=O)(=O)C2` the Potency was “inactive”. For `S=C1NCCc2ccc(Cl)cc2C1c1ccccc1Cl` (stereo unspecified), the Potency was inconclusive [inhibitor, single point]. With `CCCCNC(=S)NNC(=O)c1csc(C)c1` the Potency was inconclusive [inhibitor, single point]. With `CN(C)c1cccc(C(=O)Nc2ccc3nc4n(c(=O)c3c2)CCCCC4)c1` the Potency was inconclusive [inhibitor, single point]. For `CCOCCn1ccc2c(OCC(=O)Nc3cc(OC)ccc3OC)cccc2c1=O`, the Potency was inconclusive [inhibitor, single point]. For `CCOC(=O)CSc1nc2cc(C(=O)N3CCC(C(N)=O)CC3)ccc2c(=O)n1-c1ccccc1`, the Potency was “inactive”. With `CCC(=O)n1nc(-c2ccc(Cl)cc2)nc1SC` the Potency was “inactive”. For `COc1cc(C(=O)OCC(=O)N2CCCCCC2)c([N+](=O)[O-])cc1OC`, the activity change, negative = growth inhibition was inconclusive: -34.5% [inhibitor]. For `CN(C(=O)c1cc2c(=O)n3ccccc3nc2n1C)c1ccccc1`, the Potency was active: 11.6 µM.
